Reference: the supplement of paper PMC7826260
The list shows a part of the results. Each Rep nickase domain was tested in vitro on the same pool of single strands (1 h at 37 °C, 3 µM enzyme); the outer parts of the 90-letter strands are left off. Numbers give uncut DNA relative to the enzyme-free pool, as log2; more negative means more cut, near 0 not cut, and no call is made. Because reads are shares of a total, they shift together; values above 0 arise when much of the pool is cut.

Test system: T1, Rep nickase domain of tomato golden mosaic virus
T1 sequence (Rep 1-124, printed without the tag): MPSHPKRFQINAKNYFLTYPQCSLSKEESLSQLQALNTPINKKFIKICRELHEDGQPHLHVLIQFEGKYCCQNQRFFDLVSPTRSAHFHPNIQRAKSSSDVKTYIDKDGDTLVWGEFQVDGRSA
Test: uncleaved DNA left, log2 of reads against the no-enzyme library (log2 ratio); higher = less cleavage (more negative = more Rep cleavage of the k-mer); sequences stand for … in CTCGTCCG…ACCGGAGA
Method: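 A pool of 90-nt single-stranded DNAs with seven random bases just before the constant AC of the nick site (name = the seven bases) was cut by 3 µM recombinant His6-SUMO-tagged Rep nickase domain (300 nM DNA, 50 mM HEPES pH 8.0, 50 mM NaCl, 1 mM MnCl2, 1 h, 37 °C, three replicates). Uncut DNA was amplified and sequenced.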

Question: GGTTTGG was tested. Which “uncleaved DNA left (log2)” value did it give?
Answer: 0.111

Question: Which “uncleaved DNA left (log2)” value does the source give for ACTCTCG here?
Answer: 0.0256

Question: For CATGTAT, which “uncleaved DNA left (log2)” value is on record?
Answer: -0.0358

Question: For TGCGACA, which “uncleaved DNA left (log2)” value is on record?
Answer: 0.0529

Question: With CGTGCAA as the sequence, how does the “uncleaved DNA left (log2)” value read?
Answer: 0.0113

Question: How did the “uncleaved DNA left (log2)” value turn out when AGCCTAT was run?
Answer: -0.0462

Question: For CATGGAG, which “uncleaved DNA left (log2)” value is on record?
Answer: 0.142

Question: With TGCGCCG as the sequence, how does the “uncleaved DNA left (log2)” value read?
Answer: -0.0662

Question: With ATTCTAC as the sequence, how does the “uncleaved DNA left (log2)” value read?
Answer: -0.0655

Question: For GTATTAT, which “uncleaved DNA left (log2)” value is on record?
Answer: 0.144

Question: CCGGTCT was tested. Which “uncleaved DNA left (log2)” value did it give?
Answer: -0.0996

Question: TTTCGAT was tested. Which “uncleaved DNA left (log2)” value did it give?
Answer: -0.0521

Question: For AAGGCCG, which “uncleaved DNA left (log2)” value is on record?
Answer: 0.0462

Question: For ACTATGA, which “uncleaved DNA left (log2)” value is on record?
Answer: 0.0332

Question: Which “uncleaved DNA left (log2)” value does the source give for CGTGCTG here?
Answer: -0.142

Question: AAACTCT was tested. Which “uncleaved DNA left (log2)” value did it give?
Answer: -0.117

Question: TTGCAGA was tested. Which “uncleaved DNA left (log2)” value did it give?
Answer: -0.0909

Question: Which “uncleaved DNA left (log2)” value does the source give for CGGACCA here?
Answer: -0.037

Question: Which “uncleaved DNA left (log2)” value does the source give for TTTCCCG here?
Answer: -0.0353

Question: For ATAACAT, which “uncleaved DNA left (log2)” value is on record?
Answer: 0.0253

Question: How did the “uncleaved DNA left (log2)” value turn out when GCCAGTA was run?
Answer: 0.0808

Question: For CCGTTAA, which “uncleaved DNA left (log2)” value is on record?
Answer: -0.0791

Question: AGGCCCG was tested. Which “uncleaved DNA left (log2)” value did it give?
Answer: 0.00731

Question: How did the “uncleaved DNA left (log2)” value turn out when GCTAAAA was run?
Answer: 0.175

Question: Which “uncleaved DNA left (log2)” value does the source give for GTTGCAG here?
Answer: 0.123

Question: Which “uncleaved DNA left (log2)” value does the source give for GCCCCGC here?
Answer: -0.00712

Question: For GCGATCG, which “uncleaved DNA left (log2)” value is on record?
Answer: -0.0659

Question: For CGATAAT, which “uncleaved DNA left (log2)” value is on record?
Answer: 0.0191

Question: For TTTTTCG, which “uncleaved DNA left (log2)” value is on record?
Answer: 0.0122

Question: With GCTAATT as the sequence, how does the “uncleaved DNA left (log2)” value read?
Answer: -0.0709

Question: CTGTAGC was tested. Which “uncleaved DNA left (log2)” value did it give?
Answer: -0.0855

Question: With GAGGGTA as the sequence, how does the “uncleaved DNA left (log2)” value read?
Answer: 0.096

Question: For CTAATAG, which “uncleaved DNA left (log2)” value is on record?
Answer: -0.11

Question: TGGTCGT was tested. Which “uncleaved DNA left (log2)” value did it give?
Answer: 0.0125

Question: Which “uncleaved DNA left (log2)” value does the source give for CTCTGAA here?
Answer: 0.0754

Question: With TCTGCGA as the sequence, how does the “uncleaved DNA left (log2)” value read?
Answer: -0.104

Question: With CTCTGGA as the sequence, how does the “uncleaved DNA left (log2)” value read?
Answer: 0.0206

Question: With CGAATTA as the sequence, how does the “uncleaved DNA left (log2)” value read?
Answer: 0.0142

Question: With GGCCTGT as the sequence, how does the “uncleaved DNA left (log2)” value read?
Answer: 0.0989

Question: For CAGCTGT, which “uncleaved DNA left (log2)” value is on record?
Answer: 0.00146
